The source gives no read counts; variants with many changes may rest on few reads.
B1: LINE1-mini (parent)
chain: GGCAGAGCUCAACACAGCGUGGCAAAGUGGCUGUGGCUAGACUGCC

Variants of: B1
Assay: self-cleavage, relative activity (ratio to wild type); higher = more cleavage; in vitro, sequencing; the parent is a self-cleaving ribozyme

| Variant | self-cleavage |
| --- | --- |
| C10U G17U U38A C42U | 0.06 |
| G7U U9A A26C G33A | 0.05 |
| C31A G35C C37G | 0.05 |
| A6G C37A A39G | 0.02 |
| G1A U20G G30A | 0.42 |
| C10G A16C A26C | 0.02 |
| G5A G19C C23G | 0.12 |
| A12U A16U C31U | 0.01 |
| G27U A39C C42A | 0.08 |
| A11C C31G U38G | 0 |
| A6G G33U C46G | 0.14 |
| C3G U34G U38C G44A C46U | 0.01 |
| G7U C15A U28C | 0.13 |
| G2U G5U C10A A12G A24G G33U | 0.01 |
| C13A A16U G33C U34A G35A | 0.02 |
| A6G G30A G44U | 0.04 |
| G2A A11C G22A G33A | 0.03 |
| A4G C13U G35A | 0.03 |
| A4G G7C G29U C42A | 0.18 |
| A14C G40C C46U | 0 |
| G36A G40C A41G | 0.04 |
| C8G A12G A16C C31U | 0 |
| G2U C8G C15G C23G G27A U32A U34A | 0.02 |
| G2A C18U A41G | 0.1 |

| Variant | self-cleavage |
| --- | --- |
| G2C G7U A24U G44A C45U | 0.06 |
| G1U C3U A4U G19A C37U | 0.04 |
| U9G A26U U28C | 0.04 |
| C3A C18A G44C | 0.83 |
| G5U A12G C18A A25U G29A G35U | 0.02 |
| G1A A4G C31U U43A | 0.04 |
| G2U G7U G17U G35U G36U | 0.04 |
| G22C U32G G40C | 0.14 |
| A26U C37G A39G | 0.02 |
| G2C C23U G33U | 0.06 |
| C13G U28A C37U | 0.11 |
| C3A A14U U28G A39U C42G | 0.05 |
| C13A C37A U43A | 0.01 |
| G1C C3A C15U C23U G29C C31G | 0.15 |
| A4C A12C G17A C18U G21U G35A | 0.06 |
| G5U C23A G29U | 0.03 |
| A6G G7U U28A C45G | 0.01 |
| C15G C18U U43A | 0.11 |
| A4C G5U A41U | 0.08 |
| G7A A25C C37A G40A | 0.29 |
| A4G G19A U32A C37A | 0.1 |
| C3A C18A A41C C46A | 0.1 |
| A14C C31U G40U C46G | 0.01 |
| G1C A12C U20C U28A | 0 |

| Variant | self-cleavage |
| --- | --- |
| C13G G27A U38C | 0 |
| G1U A6G C10U C31U G33A | 0.01 |
| C3A G7U C8A G30A C46U | 1.88 |
| G5C U28C C42A | 0.06 |
| G1A C13U U20C U38G C46A | 0.02 |
| C3U G22U U34A | 0.14 |
| G5A U20C G21A C23A C31U | 0.05 |
| G2C A11C A16C G17A G22A C37A | 0.01 |
| A12G A16C G19C | 0.12 |
| C18G G19C G44C | 0.91 |
| G5A C10A G44A | 0.07 |
| G5C A14U G30A G40A C42A | 0.26 |
| G2U C18A U34A G35C | 0 |
| G1U A4U A16G G19A U34A G36A | 0.02 |
| C3A A11G C18A | 0.08 |
| C10A A16U G27C | 0.04 |
| A6C C13G A24C G33A G44U | 0.05 |
| A4C A26U G27C A41C C45U | 0.02 |
| C8U C15A A16C | 0.04 |
| G7A C23U A24G G30U G35C A39G | 0.02 |
| C15U G27U G40A | 0.18 |
| C3G G27C U28C A41C | 0.04 |
| U9G C13G C15G | 0.38 |
| A25C G27A A41C G44U | 0.15 |

| Variant | self-cleavage |
| --- | --- |
| G1U G2U C8U A12G G30C U34C | 0.01 |
| U20A C31G A39C | 0.03 |
| G2U C23G A24U A41C | 0.02 |
| U9C A26C G30A U38A | 0.03 |
| G2A C18U G22A U28C G36U U38A | 0.03 |
| G2U G7A A12C G19C C23U A25U C31U | 0.03 |
| U9G C23A G27A U34C | 0.06 |
| C3U G7C C8A U32A G40U | 0.31 |
| C10A G17U G40C G44C | 0.02 |
| A12G A16C G17A G22C U32A | 0.01 |
| C18A A39U U43G C46G | 0.03 |
| C10G G21C A25G | 0.07 |
| G22U A24U U34A | 0.33 |
| C3G C10A A11U G27C G29U | 0.02 |
| A26U U28A C37G C42U | 0.01 |
| G7A G29C C46A | 0.11 |
| G2U C10A C18A C23G G29A G33C | 0 |
| C3A A16G G19C C31U | 0.05 |
| G5A C8A C18A G27U | 0.18 |
| A14U A16U C18G G22A G30C G36C C45U | 0 |
| U20C A24G A26U G33C U34G | 0.07 |
| C23A G27C A41G | 0.14 |
| G2C G7A A14G U32A G33A | 0.01 |
| C8A C18A G19U | 0.07 |

| Variant | self-cleavage |
| --- | --- |
| C8U C13A C15U A16G | 0.04 |
| C3A C13A U38A G40U | 0.2 |
| A6G G22U G35C C46A | 0.07 |
| C3A G19A A24G C42U | 0.34 |
| A16U C37G U38A | 0 |
| G22C U32G G44A | 0.11 |
| C3U G7U C8G G21C U38G | 0.1 |
| A24U G29A A39G | 0.19 |
| C3U U20A G29C G44U | 0.1 |
| C18A G19C U38C | 1.49 |
| C15A G27C C31U | 0.02 |
| G17C G21C G22U C37G C46G | 0.06 |
| A14G C15A A24C C42G U43A | 0.01 |
| G1C C3U G44U | 0.23 |
| A11G G22A A24G | 0.01 |
| G2U C3U G7A A16U G30A | 0.09 |
| C18U C23G G35C U38G | 0 |
| C3A A25G A26C | 0.3 |
| C3G U9C U20G A24C A39U G40U | 0.01 |
| C10G A11C C42A | 0.02 |
| G5C A6C G7U U28C | 0.18 |
| G27A U28C C31G | 0.04 |
| C10A C18G C31G | 0.02 |
| C8G U9A A26U C46G | 0.16 |

| Variant | self-cleavage |
| --- | --- |
| G22U C23A G33A G36U C46G | 0.04 |
| A4C G19U G22U G35C C42G U43A | 0.01 |
| C3A A24G A25G G27U C31G C45A | 0.07 |
| G21C G27A G30A G36A C45G | 0.05 |
| G2C A11C A24U C42A | 0.01 |
| C3G U9G G22U U34G | 0.14 |
| G2A C8U G21U C46G | 0.26 |
| G22A A25G G27A | 1.06 |
| G5U G7U A26G U38C | 0.36 |
| G5U U9A C15U | 0.06 |
| U20C G29C U34A | 0.14 |
| A16G G21C A41G | 0.02 |
| G21A G27A C46G | 0.96 |
| G1U G21C U28A | 0.2 |
| G1A C8U C15A C23A A24C | 0.06 |
| A4G U9C U20A C31A G36C | 0 |
| G19C U28G C37G | 0.01 |
| G29A U32A G40C | 0.08 |
| C13U A16G G27U A41C C42G G44C | 0.03 |
| G2C A4C A11G G19U U43C | 0.01 |
| G19C U20G U32A | 0.13 |
| C10A A16G G35U C42A C46U | 0.18 |
| C10U A39G C46U | 0.1 |
| G2U A16U G19A G44C C45A | 0.01 |

| Variant | self-cleavage |
| --- | --- |
| G36U A39U C45U | 0.03 |
| G1U G5A G19C G29A C45A | 0.07 |
| G1U A26U G30C C31U | 0.09 |
| C3U A4G G19U U38G | 0.03 |
| A11U C15U A25C A39U | 0.01 |
| G1U C8G U20G U43G | 0.02 |
| A11C C23A A41U G44U | 0 |
| A6C C8G U9C C13U U20A G30U | 0.02 |
| G2A A11G A24C C37G U43A | 0 |
| G2C C3U G19A | 0.12 |
| C8G C18U A39G C45U | 0.01 |
| C23U A25G C42U | 0.17 |
| C23A G33C A39U C42U | 0.08 |
| A12C G17A U38G G44U | 0 |
| G7C G36U C37A C45A | 0.12 |
| C3U G5U C10A G27U G33A | 0.03 |
| G1C G17A G30A U38C C46U | 0 |
| G7U U28G U32G | 0.1 |
| A4C G17C U38C | 0.05 |
| A4G C10U C23A C31G | 0.08 |
| G1U C8U C23G U38A C45A | 0.02 |
| U9A C18G G35C | 0.05 |
| A12C G17C G19A | 0.01 |
